Source: PubChem BioAssay AID651740 (Broad Institute, 2012)
Out of some 5,600 compounds screened, about 1,200 (21%) were called active. Inconclusive means that the source gave no clear call. Such entries were picked first, then a sample of the others.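 The calls were made as follows: active = mean inhibition above about 95%, with at least 55% of replicates also reaching it (limit read from the data); inconclusive = meets just one of the two conditions; inactive = meets neither condition.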

Assay: Trypanosoma cruzi growth blockers in host fibroblasts – NIH3T3 host cells, beta-gal parasites, cherry-pick, set 2, confirmation (AID 651740);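 also: plate controls were neutral control median for no effect and positive control median for full effect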
Conditions: T. cruzi beta-gal in NIH3T3, GalScreen luminescence, 90 h; at 2.09 µM; hits give high values
In short: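 Compound – single point, 100 nL in DMSO · Material – NIH/3T3 host cells with beta-gal T. cruzi Tulahuen C4 · Medium – DMEM plus 2% fetal bovine serum, 1% PSG · Technique – GalScreen lysis and luminescent beta-gal signal · Timing – ≥90 h co-culture with compound, 60 min detection reagent · Also added – 5000 trypomastigotes per well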

Question: With `Cc1ccccc1S(=O)(=O)N1CC[C@@H]2[C@H](CO)Nc3ccc(-c4ccc(C#N)cc4)cc3[C@@H]21` as the molecule, how does the inhibition read?
Answer: active: 104%

Question: For `C[C@@H]1CCCCO[C@@H](CN(C)Cc2ccc(Cl)c(Cl)c2)[C@H](C)CN([C@@H](C)CO)C(=O)c2cc(NC(=O)Nc3cccc4ccccc34)ccc2O1`, which inhibition is on record?
Answer: active: 112%

Question: With `C[C@@H]1CN([C@@H](C)CO)S(=O)(=O)c2ccc(C#Cc3cccc(F)c3)cc2O[C@H]1CN(C)S(=O)(=O)c1ccccc1F` as the molecule, how does the inhibition read?
Answer: inconclusive: 97.4%

Question: For `C[C@@H]1CN([C@@H](C)CO)S(=O)(=O)c2ccc(C#Cc3ccccn3)cc2O[C@@H]1CN(C)Cc1cccc(F)c1`, which inhibition is on record?
Answer: inconclusive: 96.4%

Question: With `N#C[C@H]1[C@H](c2ccc(C#Cc3cccc(F)c3)cc2)[C@@H](CO)N1C(=O)C1CCCC1` as the molecule, how does the inhibition read?
Answer: active: 102%

Question: Which inhibition does the source give for `C[C@@H]1CN([C@@H](C)CO)S(=O)(=O)c2ccc(C#CC(C)(C)O)cc2O[C@H]1CN(C)C(=O)C1CC1` here?
Answer: inactive: -51.6%

Question: For `C/C=C/c1ccc2c(c1)O[C@@H](CN(C)C(=O)Nc1ccc(C(F)(F)F)cc1)[C@H](C)CN([C@@H](C)CO)S2(=O)=O`, which inhibition is on record?
Answer: inconclusive: 100%

Question: Which inhibition does the source give for `C[C@@H]1CCCCO[C@@H](CN(C)C(=O)Nc2ccc3c(c2)OCO3)[C@@H](C)CN([C@H](C)CO)C(=O)c2cc(NC(=O)CCCN(C)C)ccc2O1` here?
Answer: inactive: 11.8%

Question: Which inhibition does the source give for `COc1ccc(C#Cc2ccc([C@@H]3[C@@H](CO)N4CCCCN(C(=O)Nc5ccc(F)cc5)C[C@H]34)cc2)cc1` here?
Answer: active: 120%

Question: For `COC(=O)C[C@H]1CC[C@H]2[C@H](COc3ccc(NC(=O)Nc4cccc(Cl)c4)cc3C(=O)N2C)O1`, which inhibition is on record?
Answer: inconclusive: 98.3%

Question: With `CCCC#Cc1ccc2c(c1)O[C@H](CN(C)C(=O)c1ccccc1)[C@H](C)CN([C@@H](C)CO)S2(=O)=O` as the molecule, how does the inhibition read?
Answer: inactive: 76.9%

Question: For `Cc1noc(C)c1S(=O)(=O)N(C)C[C@H]1OCCCC[C@H](C)Oc2ccc(NC(=O)Nc3ccc4c(c3)OCO4)cc2C(=O)N([C@@H](C)CO)C[C@@H]1C`, which inhibition is on record?
Answer: inactive: 4.01%

Question: With `COc1ccc(S(=O)(=O)Nc2ccc3c(c2)C(=O)N([C@H](C)CO)C[C@@H](C)[C@@H](CN(C)S(=O)(=O)c2ccc(Cl)cc2)OCCCC[C@H](C)O3)cc1` as the molecule, how does the inhibition read?
Answer: inconclusive: 97.8%

Question: With `C[C@@H]1CCCCO[C@H](CN(C)S(=O)(=O)c2ccc(F)cc2)[C@H](C)CN([C@@H](C)CO)C(=O)c2cc(NS(=O)(=O)c3ccccc3)ccc2O1` as the molecule, how does the inhibition read?
Answer: inactive: 47.8%

Question: Which inhibition does the source give for `Cc1cccc(S(=O)(=O)N2C[C@H](O)COC[C@@H]3O[C@@H](CC(=O)Nc4ccc(-c5ccccc5)cc4)CC[C@H]32)c1` here?
Answer: inconclusive: 99.2%

Question: For `CO[C@@H](CN(C)S(=O)(=O)c1ccc(Cl)cc1)[C@@H](C)CN([C@H](C)CO)S(=O)(=O)c1cccc(Cl)c1`, which inhibition is on record?
Answer: inactive: 56.5%

Question: Which inhibition does the source give for `C[C@@H]1CN([C@H](C)CO)S(=O)(=O)c2ccc(C#C[C@@H](C)O)cc2O[C@H]1CN(C)Cc1ccncc1` here?
Answer: inactive: 35.8%

Question: Which inhibition does the source give for `CCc1csc(N2[C@H](C#N)[C@H](c3ccc(C4=CCCC4)cc3)[C@@H]2CO)n1` here?
Answer: active: 112%

Question: Which inhibition does the source give for `O=S(=O)(c1cccs1)N1CCCCN2[C@H](CO)[C@H](c3ccc(C4=CCCCC4)cc3)[C@@H]2C1` here?
Answer: inactive: 93.6%

Question: With `C[C@H](CO)N1C[C@H](C)[C@H](CN(C)Cc2ccccc2)OCCCC[C@H](C)Oc2ccc(NS(=O)(=O)c3ccc(Cl)cc3)cc2C1=O` as the molecule, how does the inhibition read?
Answer: inconclusive: 97.3%

Question: For `C[C@H](CO)N1C[C@H](C)[C@H](CN(C)C(=O)Nc2ccc3c(c2)OCO3)Oc2ncc(C#Cc3ccc(C(F)(F)F)cc3)cc2C1=O`, which inhibition is on record?
Answer: inconclusive: 95.8%

Question: For `OC[C@@H]1[C@@H](c2ccc(C#Cc3cccnc3)cc2)[C@H]2CN(Cc3ccccc3F)CCCCN12`, which inhibition is on record?
Answer: inactive: -0.865%

Question: For `CC(C)NC(=O)N1[C@@H](C#N)[C@H](c2ccc(C#CC3CC3)cc2)[C@@H]1CO`, which inhibition is on record?
Answer: inconclusive: 96.2%

Question: With `C[C@@H]1CN([C@H](C)CO)C(=O)c2cc(NC(=O)C3CCCCC3)ccc2O[C@@H](C)CCCCO[C@H]1CN(C)Cc1ccc(C(F)(F)F)cc1` as the molecule, how does the inhibition read?
Answer: active: 109%

Question: Which inhibition does the source give for `COc1ccc(S(=O)(=O)Nc2ccc3c(c2)CC(=O)N([C@H](C)CO)C[C@@H](C)[C@H](CN(C)Cc2ccccc2)O3)cc1` here?
Answer: active: 99.2%

Question: Which inhibition does the source give for `C[C@@H]1CN([C@H](C)CO)C(=O)c2cc(NC(=O)Nc3ccc(C(F)(F)F)cc3)ccc2O[C@H]1CN(C)Cc1ccc(-c2ccccc2)cc1` here?
Answer: inconclusive: 98.6%

Question: With `C[C@@H]1CCCCO[C@@H](CN(C)Cc2ccc3c(c2)OCO3)[C@H](C)CN([C@@H](C)CO)C(=O)c2cc(NC(=O)Nc3cccc4ccccc34)ccc2O1` as the molecule, how does the inhibition read?
Answer: inconclusive: 97.9%

Question: Which inhibition does the source give for `C[C@H](CO)N1C[C@H](C)[C@@H](CN(C)C(=O)Nc2cccc(F)c2)OCc2cn(nn2)CCCC1=O` here?
Answer: inactive: 16.8%

Question: For `COc1ccc(NC(=O)Nc2ccc3c(c2)[C@@H]2C[C@H](CC(=O)NCCc4ccccc4)O[C@@H](CO)[C@@H]2O3)cc1`, which inhibition is on record?
Answer: inconclusive: 98.3%

Question: For `C/C=C/c1ccc([C@H]2[C@H](CO)N3CCCCN(S(=O)(=O)c4ccc(OC)cc4)C[C@@H]23)cc1`, which inhibition is on record?
Answer: inactive: 89.8%

Question: With `C[C@@H]1CN([C@@H](C)CO)S(=O)(=O)c2ccc(-c3ccccc3)cc2O[C@@H]1CN(C)Cc1cccc(F)c1` as the molecule, how does the inhibition read?
Answer: active: 112%

Question: For `COCC(=O)N1CC[C@@H]2[C@H]1c1cc(-c3ccccc3)ccc1N(C)[C@@H]2CO`, which inhibition is on record?
Answer: inactive: 84.8%

Question: For `O=C(C[C@H]1CC[C@H]2[C@@H](COC[C@@H](O)CN2Cc2ccc(Oc3ccccc3)cc2)O1)Nc1nccs1`, which inhibition is on record?
Answer: inactive: 17.5%

Question: Which inhibition does the source give for `C[C@H]1CCCCO[C@@H](CN(C)S(=O)(=O)c2ccc(F)cc2)[C@@H](C)CN([C@@H](C)CO)C(=O)c2cc(NS(=O)(=O)c3ccc(Cl)cc3)ccc2O1` here?
Answer: inconclusive: 95.7%

Question: For `CCCC#Cc1ccc([C@@H]2[C@H]3CN(S(=O)(=O)c4ccccc4C)CCCCN3[C@H]2CO)cc1`, which inhibition is on record?
Answer: inconclusive: 95%

Question: With `O=C(Nc1cccc(F)c1)N1CCCCN2[C@H](C1)[C@@H](c1ccc(-c3ccccc3F)cc1)[C@@H]2CO` as the molecule, how does the inhibition read?
Answer: inconclusive: 96.7%

Question: Which inhibition does the source give for `CN1C(=O)c2cc(NC(=O)c3cnccn3)ccc2OC[C@@H]2O[C@H](CC(=O)N[C@H]3CCN(Cc4ccccc4)C3)CC[C@@H]21` here?
Answer: inconclusive: 97.8%

Question: With `Cc1ccccc1-c1ccc([C@H]2[C@@H](CO)N3CCCCN(C(=O)Nc4ccc(F)cc4)C[C@H]23)cc1` as the molecule, how does the inhibition read?
Answer: inconclusive: 98%

Question: For `CN(C)C(=O)c1cccc(-c2ccc3c(c2)[C@@H]2[C@@H](CCN2S(=O)(=O)c2ccccc2)[C@@H](CO)N3)c1`, which inhibition is on record?
Answer: inconclusive: 96.3%

Question: With `C[C@H]1CCCCO[C@H](CN(C)S(=O)(=O)c2ccccc2)[C@@H](C)CN([C@@H](C)CO)C(=O)c2cc(NC(=O)Nc3ccc(F)cc3)ccc2O1` as the molecule, how does the inhibition read?
Answer: inactive: 62%

Question: Which inhibition does the source give for `C[C@H](CO)N1C[C@H](C)[C@H](CN(C)Cc2ccccn2)Oc2cc(-c3ccncc3)ccc2S1(=O)=O` here?
Answer: inactive: 84.4%

Question: With `Cc1ccc(S(=O)(=O)N(C)C[C@H]2Oc3cc(-c4cccc(F)c4)ccc3S(=O)(=O)N([C@@H](C)CO)C[C@H]2C)cc1` as the molecule, how does the inhibition read?
Answer: inconclusive: 97.1%

Question: Which inhibition does the source give for `Cc1ccccc1-c1ccc([C@H]2[C@@H](CO)N3CCCCN(S(=O)(=O)c4ccc(F)cc4)C[C@H]23)cc1` here?
Answer: inconclusive: 96.1%

Question: With `O=C(Nc1cccc(F)c1)N1CCCCN2[C@H](CO)[C@@H](c3ccc(C#Cc4cccnc4)cc3)[C@@H]2C1` as the molecule, how does the inhibition read?
Answer: inconclusive: 96%

Question: For `CC(C)CC#Cc1ccc2c(c1)O[C@H](CN(C)C(=O)Cc1ccccc1)[C@@H](C)CN([C@H](C)CO)S2(=O)=O`, which inhibition is on record?
Answer: inconclusive: 99.6%

Question: For `CC(C)C#Cc1ccc2c(c1)O[C@@H](CN(C)C(=O)c1ccncc1)[C@@H](C)CN([C@H](C)CO)S2(=O)=O`, which inhibition is on record?
Answer: inconclusive: 96.4%

Question: With `COc1ccccc1-c1ccc([C@H]2[C@@H](CO)N3CCCCN(C(=O)NC4CCCC4)C[C@@H]23)cc1` as the molecule, how does the inhibition read?
Answer: inactive: 80.6%

Question: For `COc1ccccc1C#Cc1ccc([C@@H]2[C@H]3CN(C(=O)C4CC4)CCCCN3[C@H]2CO)cc1`, which inhibition is on record?
Answer: inactive: 50.3%

Question: Which inhibition does the source give for `CN(C)C(=O)c1ccc(-c2ccc([C@@H]3[C@@H](C#N)N(C(=O)C4CC4)[C@H]3CO)cc2)cc1` here?
Answer: inconclusive: 95.1%

Question: With `CO[C@H](CN(C)C(=O)Nc1ccc(Cl)cc1)[C@H](C)CN(Cc1ccccc1Cl)[C@H](C)CO` as the molecule, how does the inhibition read?
Answer: inactive: 63.2%

Question: With `C[C@H](CO)N1C[C@H](C)[C@@H](CN(C)Cc2ccc(-c3ccccc3)cc2)Oc2ccc(NS(C)(=O)=O)cc2CC1=O` as the molecule, how does the inhibition read?
Answer: inconclusive: 95.1%

Question: With `O=C(NC[C@H]1[C@H](c2ccccc2)[C@H](CO)N1Cc1ccccn1)C1CCCC1` as the molecule, how does the inhibition read?
Answer: inactive: -19.4%

Question: With `C[C@H]1CN([C@@H](C)CO)C(=O)c2cc(C#CCc3ccccc3)cnc2O[C@@H]1CN(C)CC1CCCC1` as the molecule, how does the inhibition read?
Answer: inconclusive: 95.4%

Question: With `C[C@@H]1CN([C@H](C)CO)C(=O)c2cc(/C=C/c3ccccc3)cnc2O[C@H]1CN(C)Cc1ccccc1F` as the molecule, how does the inhibition read?
Answer: inconclusive: 95.3%

Question: For `C[C@@H]1CN([C@H](C)CO)S(=O)(=O)c2ccc(C3=CCCCC3)cc2O[C@@H]1CN(C)C(=O)C1CCCCC1`, which inhibition is on record?
Answer: inactive: 92.2%

Question: With `O=S(=O)(c1ccc(F)cc1)N1CCCCN2[C@H](C1)[C@H](c1ccc(C3=CCCCC3)cc1)[C@@H]2CO` as the molecule, how does the inhibition read?
Answer: inconclusive: 95.2%

Question: For `CCCC#Cc1ccc([C@@H]2[C@@H](CO)N3CCCCN(S(=O)(=O)c4ccccc4C)C[C@H]23)cc1`, which inhibition is on record?
Answer: inconclusive: 95.3%

Question: With `COCC(=O)N1CCCCN2[C@H](CO)[C@H](c3ccc(-c4ccc(OC)cc4)cc3)[C@@H]2C1` as the molecule, how does the inhibition read?
Answer: inactive: 11.3%
